Some of the results follow. At the low end of the ranking the order means little.

In this experiment the target is T1, GST-Rok (full length) (UniProt O34857).
T1 sequence: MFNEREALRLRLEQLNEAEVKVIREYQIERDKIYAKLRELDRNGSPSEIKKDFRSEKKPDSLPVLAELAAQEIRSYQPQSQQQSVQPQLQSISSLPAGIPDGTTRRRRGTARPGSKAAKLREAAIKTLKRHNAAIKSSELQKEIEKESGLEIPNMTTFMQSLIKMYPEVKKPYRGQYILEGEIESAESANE
In words: protein binding microarray.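 Further: rank score from −0.5 (least bound) to 0.5 (best bound).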 Particulars: Rok is a gene silencer of Bacillus subtilis; high values mean tight binding; most listed sequences are background and not binding sites; double strand, one strand shown.
CACGTTGG came in with a binding signal of -0.117 E-score.
As for CGAAATTC, the binding signal is 0.341 E-score.
GCATGCGA registered a binding signal of -0.148 E-score.
For ACGGAACG, the binding signal is -0.0661 E-score.
For TCCCTAGA, the binding signal is -0.0578 E-score.
AAGAGTCT registered a binding signal of -0.0329 E-score.
CGATAGAC: the binding signal stood at 0.0161 E-score.
For CCCACCGC, the binding signal is -0.308 E-score.
For the sequence AATCTTAA, the binding signal came out at 0.0509 E-score.
The result for AAATGTAG reads 0.297 E-score; that for AAACATCG, 0.00727 E-score; that for CCCTGAAA, -0.256 E-score.
The result for AATTTCCT reads 0.211 E-score; that for CGCGATGC, -0.0559 E-score; that for AGTAGATA, 0.442 E-score.
For the sequence GTAGCGTA, the binding signal came out at 0.291 E-score.
Regarding CCTCTGCG, the binding signal is -0.0339 E-score.
With GACGTTCC, the binding signal is -0.151 E-score.
The sequence TACGCCGA displayed a binding signal of -0.0744 E-score.
In turn, GCAAGGAC yielded a binding signal of -0.139 E-score.
For the sequence AAACATAA, the binding signal stood at 0.311 E-score.
For the sequence CGTTCTCA, the binding signal was determined as 0.242 E-score.
Sequence AACGGCGA registered a binding signal of -0.226 E-score.
In turn, CACAACTG yielded a binding signal of -0.0314 E-score.
The result for ACCAATAG reads 0.134 E-score.
In turn, CTCCCCGA registered a binding signal of -0.3 E-score.
CGCTGCGC showed a binding signal of -0.241 E-score.
Consider ACAACTTG, for which the binding signal was 0.187 E-score.
The sequence CCGTCTTC displayed a binding signal of -0.214 E-score.
The sequence TCGCTTAA registered a binding signal of 0.105 E-score.
The result for AGGACATA reads 0.0316 E-score; that for ATTACCAA, 0.181 E-score; that for CTAGCTTC, 0.0674 E-score.
The sequence GGAACTCC yielded a binding signal of -0.202 E-score.
CCGCGAGA: the binding signal was -0.205 E-score.
In the case of AGAAGTGC, the binding signal is 0.159 E-score.
Sequence GAGCGGCA displayed a binding signal of -0.282 E-score.
Sequence TACACCGA gave a binding signal of 0.000776 E-score.
On to AAGGCTGG, for which the binding signal is -0.238 E-score.
In the case of CCGAAGTC, the binding signal is -0.227 E-score.
Sequence ACCCATCG came in with a binding signal of -0.0326 E-score.
TTATAGAA had a binding signal of 0.198 E-score.
ATTACAGG: the binding signal was found to be 0.0681 E-score.
Consider AAGGGGCG, for which the binding signal was -0.371 E-score.
ACCTCGGA: the binding signal amounted to 0.102 E-score.
As for ACGGACTC, the binding signal is -0.246 E-score.
As for GGATGCTA, the binding signal turned out to be 0.155 E-score.
The result for CGGCGATA reads 0.0772 E-score; that for ACTTCTGA, 0.145 E-score.
Take GGTGCACC: the binding signal is -0.361 E-score.
The sequence GTATGAAC showed a binding signal of 0.131 E-score.
Turning to CCAGGCGC, the binding signal is -0.218 E-score.
Sequence AGTCAAGG registered a binding signal of -0.195 E-score.
In turn, AGAAAAAC yielded a binding signal of 0.0823 E-score.
In turn, CTTATTAC registered a binding signal of 0.299 E-score.
CGATAGTC showed a binding signal of -0.0533 E-score.
In turn, GCTCGCAA showed a binding signal of -0.17 E-score.
Consider ACACCAGA, for which the binding signal is 0.127 E-score.
Turning to AGCTGAAG, the binding signal turned out to be 0.0654 E-score.
ACCGTAGC registered a binding signal of -0.0206 E-score.
For AGATTGCC the value was 0.0654 E-score; for CTACTCCC, -0.0755 E-score; for AGTGGTGA, 0.0809 E-score.
In turn, ACAAGCGA yielded a binding signal of -0.0201 E-score.
Turning to GGCCGAAC, the binding signal was -0.324 E-score.
For the sequence CCAGGTGC, the binding signal was -0.241 E-score.
For AGTCATGG, the binding signal is 0.19 E-score.
GTAAATAA came in with a binding signal of 0.234 E-score.
For CGCGGTCC the value was -0.283 E-score; for CTTTTTTC, 0.0367 E-score; for GCCCTATA, -0.0695 E-score.
The sequence AAGCAGGG gave a binding signal of -0.208 E-score.
With CTGCCCCC, the binding signal was -0.348 E-score.
As for CGGACCGA, the binding signal was -0.124 E-score.
For CCCGCATA the value was -0.22 E-score; for AGTCGCTA, 0.14 E-score.
Turning to GTTGTAAA, the binding signal came to 0.23 E-score.
The result for AACTTACC reads 0.174 E-score; that for GCCCGCTA, -0.315 E-score; that for GATGCCCC, -0.333 E-score.
The result for CTCTCTGC reads -0.0927 E-score; that for TTAGAGAA, -0.0617 E-score.
The sequence CCAGCTCA had a binding signal of -0.112 E-score.
For the sequence ACGGCCCT, the binding signal is -0.196 E-score.
In turn, AGTGCAAG registered a binding signal of 0.148 E-score.
In the case of GAGTGTCA, the binding signal is -0.0572 E-score.
The result for ACATAAGT reads 0.127 E-score; that for AGTGTGTC, 0.069 E-score; that for TGGTGCAA, -0.0163 E-score.
For ACACAGGA, the binding signal was -0.106 E-score.
Consider GTGGAACA, for which the binding signal is -0.229 E-score.
As for AACACGCG, the binding signal was -0.0773 E-score.
AGACAACT registered a binding signal of 0.093 E-score.
The sequence GAGGTCAC yielded a binding signal of -0.243 E-score.
For CTTTCCAA the value was -0.208 E-score; for CTGTAAAG, 0.124 E-score.
Sequence GTTATCAA had a binding signal of 0.257 E-score.
The result for ACTCGACT reads -0.0227 E-score.
For ATTGATTG the value was 0.0266 E-score; for AATAAAAA, 0.217 E-score.
Regarding GGTGAACA, the binding signal came out at 0.193 E-score.
Regarding ACAGCGAC, the binding signal came out at 0.0346 E-score.
The result for CCCATCTA reads 0.0362 E-score.
AGCGGGTG had a binding signal of -0.203 E-score.
Consider CACAGTGG, for which the binding signal was -0.16 E-score.
For ACGGTAAC the value was 0.0635 E-score.
In the case of CAGCGATA, the binding signal was -0.0515 E-score.
The sequence CATGAGGA yielded a binding signal of -0.183 E-score.
With CATGGAAG, the binding signal is -0.127 E-score.
On to CGGTCGCA, for which the binding signal was -0.056 E-score.
On to GAATAAAC, for which the binding signal stood at 0.0508 E-score.
In the case of CATCCATA, the binding signal was determined as 0.185 E-score.
The sequence AAGTCATA gave a binding signal of 0.0344 E-score.
CAATGTAC registered a binding signal of 0.263 E-score.
As for TAGGACGA, the binding signal is -0.211 E-score.
Consider ACAGGCGC, for which the binding signal worked out at 0.0267 E-score.
For GTCTAGAA the value was -0.0015 E-score.
Sequence AATCCGTA yielded a binding signal of -0.00212 E-score.
For AGTTGATA the value was 0.257 E-score.
Sequence CGCCTACC registered a binding signal of -0.12 E-score.
For the sequence CGAGTCGC, the binding signal was -0.14 E-score.
CCCGCGAC displayed a binding signal of -0.309 E-score.
As for CGATGTCC, the binding signal was -0.123 E-score.
The sequence AGGCCGCA yielded a binding signal of -0.381 E-score.
Regarding CTTAGATA, the binding signal stood at 0.262 E-score.
Consider TCACAGCA, for which the binding signal was -0.00318 E-score.
CAGGCCAC registered a binding signal of -0.18 E-score.
AATACCAG gave a binding signal of 0.0344 E-score.
For the sequence AACTGATT, the binding signal is 0.102 E-score.
Take CCAAGCCA: the binding signal was -0.28 E-score.
The sequence CACACTAA gave a binding signal of 0.178 E-score.
CCATTACG: the binding signal amounted to 0.148 E-score.
In turn, CAACGCTG gave a binding signal of -0.0877 E-score.
In turn, GGAGGTGA showed a binding signal of -0.124 E-score.
GAGGCGTA: the binding signal was -0.0959 E-score.
In turn, CCACGCCA returned a binding signal of -0.312 E-score.
With ATGCTAAG, the binding signal was 0.111 E-score.
The sequence AACGAGTT yielded a binding signal of 0.296 E-score.
Consider GAAATAGC, for which the binding signal came to 0.107 E-score.
Sequence AAGCGGGA came in with a binding signal of -0.219 E-score.
For CGCTATAA the value was 0.134 E-score; for CCTGATAG, -0.00748 E-score.
In turn, GTTGCCAA yielded a binding signal of 0.0981 E-score.
For GGGTCGAA the value was -0.241 E-score; for CGTAGGGC, -0.412 E-score.
For the sequence CATTACGA, the binding signal came to 0.145 E-score.
In turn, GAGTTGAC showed a binding signal of 0.00651 E-score.
On to CCGCTGCG, for which the binding signal is -0.292 E-score.
As to ACAGGTTG, the binding signal was -0.129 E-score.
For AACCAACG the value was 0.0361 E-score; for AGGGGCTA, -0.332 E-score.
For TCGAAGAA the value was -0.123 E-score; for GCCTACGA, -0.0129 E-score; for ATACCGGG, 0.208 E-score.
On to GCTCCGGA, for which the binding signal is -0.102 E-score.
For ACCACGCA the value was -0.125 E-score; for CGGACTCA, -0.0715 E-score.
In the case of CTGGGAGC, the binding signal is -0.262 E-score.
As to GTGAGGCA, the binding signal was -0.0545 E-score.
For CCGTAGGC, the binding signal was -0.2 E-score.
AGGGAGAC: the binding signal was -0.272 E-score.
On to ACCTGGGA, for which the binding signal was -0.267 E-score.
CACTCGAG: the binding signal is -0.14 E-score.
On to AAAGTGAA, for which the binding signal is -0.0164 E-score.
As to AGGTGTCG, the binding signal is -0.1 E-score.
AAAGCGGT: the binding signal is -0.0445 E-score.
Take ACGGAAAA: the binding signal was 0.136 E-score.
The sequence GATGCAGA registered a binding signal of 0.0867 E-score.
As to CTCCGTGA, the binding signal came out at 0.05 E-score.
The sequence CGGTGGGC registered a binding signal of -0.289 E-score.
Sequence AATTCCTG gave a binding signal of 0.177 E-score.
In turn, ACTTTGCT showed a binding signal of 0.0417 E-score.
